In general, EC50 refers to the concentration that produces a half-maximal response. The low end stands for a more potent agent, the high end for a less potent agent. Broadly, the IC50 is the midpoint of a concentration-inhibition curve.

In experiment [1] the target is T1, cynomolgus PVRIG overexpressed on CHO cells (cynomolgus, UniProt A0A2K5WVV8 1-322).
T1 construct: whole, on cells; also called CHO-cynoPVRIG cells
T1 sequence: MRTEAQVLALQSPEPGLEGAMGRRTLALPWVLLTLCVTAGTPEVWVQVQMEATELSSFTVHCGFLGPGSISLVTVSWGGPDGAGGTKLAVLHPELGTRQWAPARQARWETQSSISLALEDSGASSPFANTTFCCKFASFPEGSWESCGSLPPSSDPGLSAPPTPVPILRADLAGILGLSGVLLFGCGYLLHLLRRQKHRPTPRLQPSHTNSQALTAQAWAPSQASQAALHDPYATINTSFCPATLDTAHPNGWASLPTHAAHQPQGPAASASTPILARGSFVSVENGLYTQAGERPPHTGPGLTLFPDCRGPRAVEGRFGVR
Put plainly: flow cytometry on CHO-cynoPVRIG cells.

Experiment [2] addresses T2, human PVRIG protein with mouse IgG2a Fc tag (human, UniProt Q6DKI7 41-171, limits assumed).
T2 construct: not shown: mouse IgG2a Fc tag
T2 sequence (looked up): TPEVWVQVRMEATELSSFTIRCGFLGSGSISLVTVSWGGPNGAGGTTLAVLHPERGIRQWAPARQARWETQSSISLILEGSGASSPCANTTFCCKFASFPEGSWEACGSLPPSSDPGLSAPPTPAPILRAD
Briefly: flow cytometry competition: human PVRIG-mouse IgG2a Fc (1 ug/mL) binding to CHO-huCD112 cells. (In general: In flow cytometry, cells or beads pass a laser one at a time.)

The target in experiment [3] is T3, human PVRIG on the cell surface (human, UniProt Q6DKI7 41-326).
T3 construct: whole, on cells; also called CHO-huPVRIG cells; human PVRIG protein overexpressed on the surface of CHO cells
T3 sequence (looked up): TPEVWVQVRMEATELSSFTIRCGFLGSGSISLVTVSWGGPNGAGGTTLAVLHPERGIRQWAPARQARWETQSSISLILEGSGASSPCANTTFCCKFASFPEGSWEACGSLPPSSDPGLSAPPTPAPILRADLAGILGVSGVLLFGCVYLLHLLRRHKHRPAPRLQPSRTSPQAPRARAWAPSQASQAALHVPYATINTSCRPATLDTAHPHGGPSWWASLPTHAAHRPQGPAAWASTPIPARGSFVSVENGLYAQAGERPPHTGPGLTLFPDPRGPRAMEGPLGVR
Put plainly: flow cytometry on CHO-huPVRIG cells.

Experiment [4] addresses T4, mouse PVRIG overexpressed on CHO cells (mouse).
T4 construct: whole, on cells; also called CHO-muPVRIG cells
Briefly: flow cytometry on CHO-muPVRIG cells.

B1: ADI-56127-G1 (antibody, human IgG1, kappa)
heavy: QVQLVQSGAEVKKPGSSVKVSCKASGGTESVDAISWVRQAPGQGLEWMGDIIPFFDTDYAQKFQGRVTITADESTSTAYMELSSLRSEDTAVYYCAREGGTSWTHFFDLWGRGTLVTVSS[human IgG1 constant region skipped]
light: [about 200 residues skipped]
notes: Wild-type human IgG1 / kappa, expressed in HEK293
As to B1, the EC50 in experiment [1] is 1.96 nM; in experiment [3], 2.51 nM; in experiment [4], 6.47 nM. In experiment [2], the IC50 was 1.23 nM.

B2: ADI-56127-G1LALA (antibody, human IgG1, kappa)
heavy: QVQLVQSGAEVKKPGSSVKVSCKASGGTESVDAISWVRQAPGQGLEWMGDIIPFFDTDYAQKFQGRVTITADESTSTAYMELSSLRSEDTAVYYCAREGGTSWTHFFDLWGRGTLVTVSS[human IgG1 constant region with changes skipped]
light: [about 200 residues skipped]
As to B2, the EC50 is 1.98 nM in experiment [1], 2.44 nM in experiment [3] and 5.38 nM in experiment [4]. This molecule came in with a half-maximal inhibitory concentration (IC50) in experiment [2] of 1.36 nM.

B3: ADI-56204-G1 (antibody, human IgG1, kappa)
heavy: QVQLVQSGAEVKKPGASVKVSCKASGYTFTHYGIYWVRQAPGQGLEWMGHIYAYSGDTDYAQKLQGRVTMTTDTSTSTAYMELRSLRSDDTAVYYCARGSPTYEHFNWFDPWGQGTLVTVSS[human IgG1 constant region skipped]
light: DIQMTQSPSSLSASVGDRVTITCQASDDISDYLNWYQQKPGKAPKLLIYDASSLHTGVPSRFSGSGSGTDFTFTISSLQPEDIATYYCQQYGNLPITFGGGTKVEIKRTVAAPSVFIFPPSDEQLKSGTASVVCLLNNFYPREAKVQWKVDNALQSGNSQESVTEQDSKDSTYSLSSTLTLSKADYEKHKVYACEVTHQGLSSPVTKSFNRGEC
notes: as for B1
Regarding B3, the results for the EC50 in experiment [1] and in experiment [3] were 2.36 nM and 2.73 nM, respectively. The same molecule yielded an IC50 in experiment [2] of 1 nM.

B4: ADI-56204-G1LALA (antibody, human IgG1, kappa)
heavy: QVQLVQSGAEVKKPGASVKVSCKASGYTFTHYGIYWVRQAPGQGLEWMGHIYAYSGDTDYAQKLQGRVTMTTDTSTSTAYMELRSLRSDDTAVYYCARGSPTYEHFNWFDPWGQGTLVTVSS[human IgG1 constant region with changes skipped]
light: B3 light
As to B4, the EC50 in experiment [1] came to 1.97 nM; in experiment [3] it was 2.5 nM. In addition, in experiment [2], the IC50 stood at 0.991 nM.

Source of the values: patent US20250223353A1 (BIOTHEUS, published 2025).
